The whole screen tested about 120,000 compounds, of which about 5,300 (4.4%) were called active. The shares of active, inactive and inconclusive entries below differ from those in the screen. Calls come from the whole dose curve; as a rule, active = well fitted inhibition curve with a large enough effect; inconclusive = small, poorly fitted or top-dose-only effect; inactive = no such curve, though single readings can be large or run the other way. A potency beside an inconclusive call is a rough fit, not a confirmed value.
Assay: qHTS Primary assay for Inhibitors of Plasmodium falciparum Dd2 growth in vitro; note: nearly all actives have a fitted effect of over 65% in size
Conditions: P. falciparum Dd2 growth, SYBR Green, 72 h; series mostly up to 28.9 µM
In short: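 Readout: SYBR Green fluorescence, 485 nm excitation, 535 nm emission, after ~16 h lysis at 37C. Before that, Dd2-infected red cells (2.5% hematocrit) grew 72 h with compound, 29 uM top final concentration.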
Potency is the fitted concentration of half-maximal effect; tags give direction and shape of the fitted curve.

Q: Which Potency does the source give for `COC(=O)[C@@H]1Cc2ncn(Cc3ccc(OC)cc3)c2CN1S(=O)(=O)c1cccc2cccnc12` here?
A: The Potency was inconclusive: 2.24 µM [inhibitor, single point].

Q: With `COc1ccccc1-c1cc2c(ccn2C)c(C(=O)NCc2cnccn2)n1` as the compound, how does the Potency read?
A: The Potency was “inactive”.

Q: Which Potency does the source give for `CCCn1cc(S(=O)(=O)c2cccc(Cl)c2)c(=O)c2cc(F)c(N3CCOCC3)cc21` here?
A: The Potency was inconclusive: 17.8 µM [inhibitor, single point].

Q: For `COCCc1noc(-c2ccccc2OC2CN(C(=O)Nc3ccccc3)C2)n1`, which Potency is on record?
A: The Potency was “inactive”.

Q: For `O=C1OCCN1CCNc1ccc(-c2nc(-c3ccccc3F)no2)cn1`, which Potency is on record?
A: The Potency was inconclusive: 14.1 µM [inhibitor, single point].

Q: For `Cc1ccc(-c2c(CN3CCN(c4cc(C)ccc4C)CC3)csc2C)cc1`, which Potency is on record?
A: The Potency was active: 10 µM.

Q: For `COC[C@H]1CCCN1Cc1cn(-c2ccccc2)nc1-c1ccc(OC)cc1F`, which Potency is on record?
A: Its Potency is active: 10 µM.

Q: For `COCCCn1c(C)cnc1CC1CCNCC1`, which Potency is on record?
A: Its Potency is “inactive”.

Q: Which Potency does the source give for `Cc1c(C(=O)NC(C)c2ccccc2)sc2ncnc(N(C)C3CCCCC3)c12` (stereo not drawn) here?
A: The Potency was inconclusive: 17.8 µM [inhibitor, single point].

Q: Which Potency does the source give for `CCc1ccc(CNC(=O)Cn2c(C)cc3nc4n(c(=O)c32)CCCC4)cc1` here?
A: Its Potency is inconclusive: 7.94 µM [inhibitor, single point].

Q: Which Potency does the source give for `O=C(NC1CC1)c1cc2c(=O)[nH]c(-c3ccccc3)cn2n1` here?
A: Its Potency is inconclusive: 6.31 µM [inhibitor, partial curve, poor fit].

Q: With `CCC(=O)N1Cc2ccccc2CC2(CCCN2Cc2ccccc2)C1` (stereo not drawn) as the compound, how does the Potency read?
A: Its Potency is inconclusive: 14.1 µM [inhibitor, single point].

Q: For `COc1ccc(-c2[nH]nc3ncc(-c4cccnc4)nc23)cc1F`, which Potency is on record?
A: Its Potency is inconclusive: 1.26 µM [inhibitor, full curve, poor fit].

Q: For `COC(=O)c1cc(NC(=O)Nc2ccc3snnc3c2)cc(C(=O)OC)c1`, which Potency is on record?
A: The Potency was inconclusive: 17.8 µM [inhibitor, single point].

Q: For `CC(C)Cn1c(=O)c2ccccc2n2c(CCC(=O)N3CCN(c4cccc(Cl)c4)CC3)nnc12`, which Potency is on record?
A: Its Potency is inconclusive: 2.51 µM [inhibitor, partial curve, poor fit].

Q: Which Potency does the source give for `OC1(CN2CCC(c3cc(Cc4ccccc4)[nH]n3)CC2)CNCCOC1` (stereo not drawn) here?
A: The Potency was “inactive”.

Q: With `COc1ccc2cc(C(=O)N3C[C@@H](CO)[C@H](c4ccccn4)C3)[nH]c2c1` as the compound, how does the Potency read?
A: Its Potency is inconclusive: 8.91 µM [inhibitor, partial curve, poor fit].

Q: For `O[C@H]1CC[C@@H](Cc2cc(CN3CCOCC3)on2)O[C@@H]1CNCc1ccccc1`, which Potency is on record?
A: Its Potency is inconclusive: 0.708 µM [inhibitor, partial curve, poor fit].
